This note sets out measurements from publication PMC4336329 (PLoS ONE, 2015).

About 2,200 (0.71%) of roughly 310,000 compounds showed an effect of 50% or more. Effects have a minus sign here. The list shows a part of the results.

The target of the test is human ether-à-go-go-related gene (hERG) potassium channel (human, UniProt Q12809). Put plainly: primary screen, population patch clamp on CHO cells stably expressing hERG.
human ether-à-go-go-related gene (hERG) potassium channel, sequence (Q12809 whole entry, looked up): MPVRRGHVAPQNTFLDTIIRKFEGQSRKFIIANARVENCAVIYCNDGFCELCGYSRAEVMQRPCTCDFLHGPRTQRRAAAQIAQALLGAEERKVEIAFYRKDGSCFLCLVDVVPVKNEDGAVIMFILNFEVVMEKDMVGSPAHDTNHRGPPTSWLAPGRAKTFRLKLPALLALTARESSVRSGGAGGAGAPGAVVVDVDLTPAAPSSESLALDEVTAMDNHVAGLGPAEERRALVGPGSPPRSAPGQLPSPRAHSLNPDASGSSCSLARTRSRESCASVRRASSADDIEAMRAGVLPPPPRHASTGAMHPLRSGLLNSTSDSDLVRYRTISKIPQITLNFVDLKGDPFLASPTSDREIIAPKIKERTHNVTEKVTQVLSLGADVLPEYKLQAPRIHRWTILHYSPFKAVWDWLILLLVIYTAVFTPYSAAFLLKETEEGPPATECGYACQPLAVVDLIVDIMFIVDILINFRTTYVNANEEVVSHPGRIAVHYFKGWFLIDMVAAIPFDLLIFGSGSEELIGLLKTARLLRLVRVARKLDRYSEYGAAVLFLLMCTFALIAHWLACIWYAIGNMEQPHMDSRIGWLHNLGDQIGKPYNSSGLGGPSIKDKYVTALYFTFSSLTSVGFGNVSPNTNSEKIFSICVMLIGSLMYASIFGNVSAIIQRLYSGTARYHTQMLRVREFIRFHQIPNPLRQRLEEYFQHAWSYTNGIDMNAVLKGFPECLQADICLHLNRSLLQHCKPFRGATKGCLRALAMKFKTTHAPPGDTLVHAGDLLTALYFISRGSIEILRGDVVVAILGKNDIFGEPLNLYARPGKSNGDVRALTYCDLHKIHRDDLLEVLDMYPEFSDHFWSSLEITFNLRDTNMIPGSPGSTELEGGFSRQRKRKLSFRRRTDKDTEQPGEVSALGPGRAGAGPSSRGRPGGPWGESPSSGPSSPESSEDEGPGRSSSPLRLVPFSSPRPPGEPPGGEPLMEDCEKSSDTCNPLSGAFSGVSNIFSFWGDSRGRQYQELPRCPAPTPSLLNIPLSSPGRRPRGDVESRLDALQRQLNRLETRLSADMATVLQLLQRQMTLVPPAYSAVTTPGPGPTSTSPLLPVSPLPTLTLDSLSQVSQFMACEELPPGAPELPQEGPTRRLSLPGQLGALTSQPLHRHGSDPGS
`CC(=O)Nc1nc2c(s1)C(=O)NCC(C)(C)C2`: the “hERG current change (%, negative = inhibition) at 1uM” value worked out at 16.1%.
Then `CC(C)(C)c1ccc(C(=O)c2c[nH]c(C(=O)NCc3cccnc3)c2)cc1`, with 1.1%.
Then `O=C(Nc1cccnc1)c1ccc(N2CCOCC2)c([N+](=O)[O-])c1`, with 15.3%; and `CCC(=O)Nc1nc2nc(-c3ccccc3)cc(-c3ccccc3)n2n1`, with 8.63%; and `CN(Cc1ccccc1)S(=O)(=O)c1ccc2[nH]cc(C(=O)NCC3CCCO3)c(=O)c2c1` (centres unmarked), with -2.57%.
Under `COc1ccc(-c2nn(-c3ccccc3C)cc2CNCc2cccnc2)cc1F` stands 1.2%; under `COc1ccc(/C=C2/N=C(SCC(=O)Nc3cc(C)on3)N(c3ccccc3)C2=O)cc1`, 12.9%; under `CCOC(=O)/C(=N\Nc1cc(C(F)(F)F)ccc1Cl)N(CC)CC`, -0.714%.
Turning to `Cc1onc(-c2c(F)cccc2Cl)c1C(=O)Nc1nnc(-c2ccccc2)s1`, the “hERG current change (%, negative = inhibition) at 1uM” value came out at 5.78%.
Then `CCC(C)(C)C1CCC(=NNC(=S)Nc2cccnc2)CC1` (centres unmarked), with 14%.
Take `Cc1ccc(O)c(NC(=S)NC(=O)COc2ccc(Br)cc2)c1`: the “hERG current change (%, negative = inhibition) at 1uM” value came to 14%.
Then `O=[N+]([O-])c1cc(S(=O)(=O)N2CCCC2)ccc1O`, with 6.04%; and `COC(=O)c1cc(=O)n(-c2ccc(C(F)(F)F)cc2)[nH]1`, with 11.5%; and `Cc1cc(C(=O)OCC(=O)Nc2ccc(F)cc2[N+](=O)[O-])c2ccccc2n1`, with -0.753%.
Under `COc1ccc(COCC(O)CN2CCN(S(=O)(=O)c3ccc(C(C)C)cc3)CC2)cc1` (centres unmarked) stands 15%; under `O=C(Nc1cccc(C(F)(F)F)c1)c1ccc2nc(N3C(=O)CCC3=O)sc2c1`, 4.32%.
As to `COc1ccccc1OC(=O)Nc1ccc(Cl)cc1`, the “hERG current change (%, negative = inhibition) at 1uM” value was found to be 7.89%.
For the molecule `Cc1c(NC(=O)CN2C(=O)c3ccccc3C2=O)c(=O)n(-c2ccccc2)n1C`, the “hERG current change (%, negative = inhibition) at 1uM” value is recorded as 11.9%.
Then `N/C(=N\OC(=O)CCCc1ccccc1)c1cccnc1`, with -0.136%; and `Cc1nnc(NCCc2ccccc2)n(N)c1=O`, with 4.92%; and `COc1ccc(CCNC(=O)C2CCCN2S(=O)(=O)c2cccc3nsnc23)cc1OC` (centres unmarked), with 12.9%.
Under `CC(C)CC(=O)N1CCC(O)(CS(=O)(=O)Cc2ccccc2)CC1` stands 1.65%; under `COc1ccc(/C=N/NC(=O)C(=O)N2CCCCCC2)cc1[N+](=O)[O-]`, 7.89%.
Turning to `Fc1ccc(C(c2nnnn2CCc2ccccc2)N2CCCc3ccccc32)cc1` (centres unmarked), the “hERG current change (%, negative = inhibition) at 1uM” value is recorded as 15.6%.
Turning to `CC(C)Cc1nnc(NC(=O)CCC(=O)N2CC(C)CC(C)C2)s1` (centres unmarked), the “hERG current change (%, negative = inhibition) at 1uM” value is -15.8%.
With `O=C1CN(S(=O)(=O)c2cc(Cl)ccc2Cl)c2ccccc2N1`, the “hERG current change (%, negative = inhibition) at 1uM” value came out at 9.79%.
Under `O=C(O)/C=C\c1cc2c(cc1[N+](=O)[O-])OCO2` stands 14.5%; under `CC(=O)C1=C(O)C(=O)N(c2cc(C(C)(C)C)on2)C1c1ccc(C(C)C)cc1` (centres unmarked), 2.26%; under `CN(C)C1NC(=O)c2cc(-c3ccccc3)sc2N1` (centres unmarked), 1.11%.
Regarding `CCc1ccc(NC(=O)CCc2nc3cccnc3n2Cc2ccc(OC)cc2)cc1`, the “hERG current change (%, negative = inhibition) at 1uM” value stood at 6.9%.
Then `Cc1nc(/C(N)=N/OC(=O)Cc2ccccc2)no1`, with 3.24%; and `Cc1ccc(NC(=O)c2ccccc2NS(=O)(=O)c2ccc(Cl)s2)cc1`, with 8.59%.
Under `COc1ccc(C(C)=O)cc1COC(=O)c1ccc(S(=O)(=O)N2CCOCC2)cc1` stands 8.54%; under `C/C(=N\NC(=O)c1c([N+](=O)[O-])c(C)nn1C)c1ccc(NC(=O)C2CCCC2)cc1`, 17.5%.
On to `CCN(CC)S(=O)(=O)c1cccc(NC(=O)c2cccc(S(=O)(=O)N3CCCC3)c2)c1`, for which the “hERG current change (%, negative = inhibition) at 1uM” value is given as -49%.
With `CCCc1ccc2oc(C(=O)NCCc3cnn(C)c3)c(C)c2c1`, the “hERG current change (%, negative = inhibition) at 1uM” value turned out to be 3.38%.
As to `Cc1ccc(NC(=O)NNC(=O)c2cc3ccccc3cc2O)c(C)c1`, the “hERG current change (%, negative = inhibition) at 1uM” value turned out to be 19.9%.
Under `CCOC(=O)N1CCN(S(=O)(=O)c2ccc(C(=O)N(CCN(C)C)c3nc4ccc(CC)cc4s3)cc2)CC1.Cl` stands -6.83%; under `Cc1ccccc1[C@@H]1C(C#N)=C(N)S[C@H]1C(=O)c1ccccc1`, -1.66%.
For the molecule `Cc1ccnc(Sc2ccc([N+](=O)[O-])cn2)n1`, the “hERG current change (%, negative = inhibition) at 1uM” value came to 14.2%.
On to `CN(Cc1cnn(C)c1)C(=O)C1CCCCC1C(=O)O` (centres unmarked), for which the “hERG current change (%, negative = inhibition) at 1uM” value is 2.4%.
On to `COC(=O)C(C)N1C(=O)S/C(=C\c2ccc(-c3ccc(C(=O)O)cc3C)o2)C1=O` (centres unmarked), for which the “hERG current change (%, negative = inhibition) at 1uM” value was found to be 8.93%.
On to `O=C([C@@H]1CCCN1C(=O)c1cccs1)N1CCN(S(=O)(=O)c2cccc(F)c2)CC1`, for which the “hERG current change (%, negative = inhibition) at 1uM” value turned out to be 17%.
Under `COc1ccccc1N(C)S(=O)(=O)c1ccc(C(=O)NCC2CCCCC2)cc1` stands 11.6%; under `CC1=CSC2=NC(=O)/C(=C\c3cccn3-c3ccc([N+](=O)[O-])cc3)C(=N)N12`, 10.9%.
With `O=C(C1CC(=O)N(c2ccc(F)cc2)C1)N1CCCCCC1` (centres unmarked), the “hERG current change (%, negative = inhibition) at 1uM” value is reported as 12.3%.
Under `Cc1cc(=O)oc2cc(Oc3ccc([N+](=O)[O-])cc3[N+](=O)[O-])ccc12` stands -49.5%; under `CCCC(=O)N1c2ccccc2NC2=C(C(=O)CCC2)C1c1ccc(F)cc1` (centres unmarked), 12.6%; under `CCN1C(=O)CC(N2CCN(c3ccc(OC)cc3)CC2)C1=O` (centres unmarked), 1.87%.
Then `Cc1ccc(S(=O)(=O)NCC2CCC(C(=O)NCc3ccccn3)CC2)cc1` (centres unmarked), with 7.25%.
Then `Cc1ccc(/C=C2\SC(=S)N(c3c(C)n(C)n(-c4ccccc4)c3=O)C2=O)cc1`, with 8.87%.
For the molecule `CS(=O)(=O)n1nc(OC(=O)c2cccc3ccccc23)cc1N`, the “hERG current change (%, negative = inhibition) at 1uM” value stood at 4.77%.
Under `CC(=O)CC(=O)Nc1ncc(C(F)(F)F)cc1Cl` stands 12.7%; under `NNC(=O)CNS(=O)(=O)c1ccc([N+](=O)[O-])cc1`, 9.23%.
For the molecule `O=c1[nH]c(SCc2ccccc2)nc2[nH]ncc12`, the “hERG current change (%, negative = inhibition) at 1uM” value came out at 6.86%.
`O=C(NCc1nc2ccccc2[nH]1)C1=C[C@H](c2coc3ccccc3c2=O)C[C@H](OCc2ccc(CO)cc2)O1`: the “hERG current change (%, negative = inhibition) at 1uM” value worked out at 9%.
Under `COc1ccc(CCN(C)C(=O)C2CCN(Cc3ccc(C)cc3)CC2)cc1OC.O=C(O)C(=O)O` stands -16.4%; under `O=C(Cn1nnc(-c2ccccc2)n1)OC1CCOC1=O` (centres unmarked), 10.8%.
Regarding `CC(C)C(=O)Nc1ccc(NC(=O)c2cccc(F)c2)cn1`, the “hERG current change (%, negative = inhibition) at 1uM” value came to 12.2%.
With `Cc1cc(C)cc(C(=O)NCC(=O)N2CCN(C(c3ccccc3)c3ccccc3)CC2)c1`, the “hERG current change (%, negative = inhibition) at 1uM” value came to 11.9%.
As to `CCn1nc(C(=O)NC2=NCCS2)c2ccccc2c1=O`, the “hERG current change (%, negative = inhibition) at 1uM” value is reported as 17.8%.
On to `CC(=C/c1ccco1)/C=N/NC(=O)Cc1cccn1C`, for which the “hERG current change (%, negative = inhibition) at 1uM” value is -2.71%.
Under `CC(C)OCCCNC(=O)CNC(=O)c1ccc(Cl)c(Cl)c1` stands 24%.
`CCCCNc1ccc(S(=O)(=O)c2cccc([N+](=O)[O-])c2)cc1[N+](=O)[O-]`: the “hERG current change (%, negative = inhibition) at 1uM” value is -1.13%.
Then `COC(=O)Cn1c2ccccc2c2nc(C)sc21`, with 1.93%; and `Cc1ccc(NC(=O)CCc2c(C)nn(-c3ccc(N4CCCCC4)nn3)c2C)cc1F`, with 3.97%.
Under `CC(C)(C)c1ccc(OC(=O)N2CCOCC2)cc1` stands 13.8%.
Under `Cc1cc2c(N)cccc2nn1` stands 6.52%; under `Cc1c(NC(=O)/C(C#N)=C/C2CC=CCC2)c(=O)n(-c2ccccc2)n1C` (centres unmarked), 16.2%.
Regarding `C#CCOCCOCCOCCNc1nc(N2CCN(C(=O)CCCCCCCCCCNC(=O)Cn3cc(C[C@@H](C)O)nn3)CC2)nc(N2CCN(C(=O)CCCCCCCCCCNC(=O)[C@@H](CCSC)n3cc(CCO)nn3)CC2)n1`, the “hERG current change (%, negative = inhibition) at 1uM” value was determined as 5.83%.
Under `COc1cc2nc(Cl)nc(N3CCN(C)CC3)c2cc1OC` stands 6.21%; under `CCC(C)(C)NC(=O)C(c1cccn1C)N(C(=O)Cn1nnc2ccccc21)c1ccc(OC)cc1OC` (centres unmarked), 2.03%; under `Cc1ccc(S(=O)(=O)NCC(=O)Nc2cccc([N+](=O)[O-])c2)cc1`, 4.69%.
Turning to `Cc1ccc(N2CC(C(=O)Nc3c4c(nn3C(C)(C)C)CS(=O)(=O)C4)CC2=O)cc1` (centres unmarked), the “hERG current change (%, negative = inhibition) at 1uM” value is 9.81%.
As to `Cc1ccc(S(=O)(=O)N2CCCC2)cc1S(=O)(=O)N1CCCC1`, the “hERG current change (%, negative = inhibition) at 1uM” value stood at 8.58%.
Then `CC1CN(C(=S)SCC(=O)c2ccc(Cl)cc2)CC(C)O1` (centres unmarked), with 11.8%; and `COCCCNC(=S)N/N=C/c1ccc(OC)cc1`, with 14%; and `CSc1ccccc1NC(=O)CN(C)C(=O)/C=C/c1ccccc1`, with 11.9%.
Turning to `C/C(CC(=O)Nc1ccccc1C(F)(F)F)=N\NC(=O)c1cnccn1`, the “hERG current change (%, negative = inhibition) at 1uM” value is reported as 7.3%.
Under `COCC(C)NC(=O)c1ccc(N(C)C)cc1` (centres unmarked) stands 5.37%; under `CN(C)C=NC(=O)c1cccn1-c1ncc(C(F)(F)F)cc1Cl`, 6.5%.
Under `Cc1cc(C)cc(OCCNC(=O)C(C)N2C(=O)c3ccccc3C2=O)c1` (centres unmarked) stands 5.34%; under `COc1ccc(N2C(=O)CC(N3CCN(C4CCc5ccccc5C4)CC3)C2=O)cc1` (centres unmarked), -37.7%; under `CC(C)c1nnc(SCC(=O)NCc2ccco2)n1C`, 6.97%.
On to `O=S1CCCSC1c1cccnc1` (centres unmarked), for which the “hERG current change (%, negative = inhibition) at 1uM” value was -3.81%.
Under `Cc1ccccc1NC(=S)N(Cc1cccs1)C1CCCC1` stands 1.53%.
